Laboratory results taken from PMC9445081, “Structural basis for recognition of N-formyl peptides as pathogen-associated molecular patterns” (Nature Communications, 2022).
Numbering of substitutions follows the chain as printed. Values joined by “and” are separate entries in the source; they are usually repeats but may differ in a detail not shown here. Identical values can stand only once. This continues a long series; more values of the same kind are listed elsewhere.

Legend:
Format in all cases: cell-based
FPR1 W254A = biological target: T1, FPR1 W254A (Homo sapiens, UniProt P21462, W254A); experiment: cAMP inhibition assay, FPR1 W254A
T1 construct: expressed in transfected cells; host or cells: HeLa cells, transient, pcDNA3.1(+)
T1 sequence (P21462 1-350 W254A): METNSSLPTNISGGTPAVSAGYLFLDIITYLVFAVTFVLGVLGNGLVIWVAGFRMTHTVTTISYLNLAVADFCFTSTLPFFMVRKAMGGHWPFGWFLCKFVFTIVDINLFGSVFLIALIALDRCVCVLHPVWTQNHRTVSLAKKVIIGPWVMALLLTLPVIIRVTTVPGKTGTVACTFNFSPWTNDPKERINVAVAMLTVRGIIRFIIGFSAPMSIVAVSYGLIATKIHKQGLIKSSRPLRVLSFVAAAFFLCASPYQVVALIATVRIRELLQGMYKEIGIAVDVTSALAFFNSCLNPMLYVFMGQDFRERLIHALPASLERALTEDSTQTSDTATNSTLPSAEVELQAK
Description: (§1) FPR1 cDNA in the pcDNA3.1(+) vector (Invitrogen) was used as a template for gene manipulation. The mutations of FPR1 were introduced in the receptor through overlap extension PCR with elaborately designed primers (GENEWIZ, Suzhou, China). The sequences of the primers were listed in Supplementary Table 2. Two fragments of FPR1 (separated at mutated positions) were assembled into pre-cut pcDNA3.1(+) vectors with the ClonExpress Ultra One Step Cloning Kit (Vazyme Biotech, C115). Plasmids with FPR1 mutations were confirmed by DNA sequencing (GENEWIZ).
(§2) For functional studies, FPR1 and its mutants were expressed in HeLa cells as above. The cells were resuspended in HBSS buffer plus 5 mM HEPES, 0.1% BSA (w/v) and 0.5 mM 3-isobutyl-1-methylxanthine and seeded into 384-well plates. […] AG-14 was synthesized by Sungening Biotechnology (Shenzhen, China). Different concentrations of the ligands were prepared plus a fixed dose of forskolin with the buffer above. […] Intracellular cAMP levels were measured with the LANCE Ultra cAMP kit (PerkinElmer, TRF0263) following the manufacturer’s instructions. […] Intracellular cAMP levels were calculated according to the TR-FRET signals of the samples and cAMP standards.
(§3) The data were analyzed with Prism 6.0 (GraphPad, San Diego, CA). For dose-response analysis, the curves were plotted with the log[agonist] vs. response equation (three parameters) in the software. Data points were presented as the percentages (mean ± SEM) of the maximal cAMP level for each construct, from at least three independent experiments, as indicated in figure legends. The pEC50 values were the negative logarithm of the EC50 values, which were obtained from the dose-response curves. For cell surface expression, data points were presented as the percentages (mean ± SEM) of the flow cytometry fluorescence signals of WT FPR1. For statistical comparison, a p-value of 0.05 or lower is considered statistically significant.

FPR1 WT = biological target: T2, FPR1 WT (Homo sapiens, UniProt P21462); experiment: cAMP inhibition assay, WT FPR1
T2 construct: expressed in transfected cells; host or cells: HeLa cells, transient, pcDNA3.1(+)
T2 sequence (P21462 1-350): T1 sequence (P21462 1-350 W254A) with A254W
Description: as §1, §2, §3

FPR1 Y257A = biological target: T3, FPR1 Y257A (Homo sapiens, UniProt P21462, Y257A); experiment: cAMP inhibition assay, FPR1 Y257A
T3 construct: expressed in transfected cells; host or cells: HeLa cells, transient, pcDNA3.1(+)
T3 sequence (P21462 1-350 Y257A): T1 sequence (P21462 1-350 W254A) with A254W, Y257A
Description: as §1, §2, §3

FPR1 R201A = biological target: T4, FPR1 R201A (Homo sapiens, UniProt P21462, R201A); experiment: cAMP inhibition assay, FPR1 R201A
T4 construct: expressed in transfected cells; host or cells: HeLa cells, transient, pcDNA3.1(+)
T4 sequence (P21462 1-350 R201A): T1 sequence (P21462 1-350 W254A) with R201A, A254W
Description: as §1, §2, §3

FPR1 F291A = biological target: T5, FPR1 F291A (Homo sapiens, UniProt P21462, F291A); experiment: cAMP inhibition assay, FPR1 F291A
T5 construct: expressed in transfected cells; host or cells: HeLa cells, transient, pcDNA3.1(+)
T5 sequence (P21462 1-350 F291A): T1 sequence (P21462 1-350 W254A) with A254W, F291A
Description: as §1, §2, §3

[1] = Log[M] -4.3, single replicate readings
[2] = Log[M] -5.0, single replicate readings
[3] = Log[M] -5.7, single replicate readings
[4] = Log[M] -6.4, single replicate readings
[5] = Log[M] -7.1, single replicate readings
[6] = Log[M] -7.8, single replicate readings
[7] = Log[M] -8.5, single replicate readings

SMILES: COc1cc(C=NNC(=O)c2ccc3c(c2)OCO3)ccc1OCc1ccccc1 [Fig. 5c]
- cAMP response, source data of Fig. 5c (FPR1 W254A; [1]): 36.8 and 58.6 and 57.6 and 38.5 and 42.8 and 49.4
- cAMP response, source data of Fig. 5c (FPR1 W254A; [2]): 47.1 and 60.3 and 62.9 and 53.0 and 65.6 and 68.0
- cAMP response, source data of Fig. 5c (FPR1 W254A; [3]): 100.6 and 95.4 and 94.1 and 72.8 and 65.9 and 77.2
- cAMP response, source data of Fig. 5c (FPR1 W254A; [4]): 113.5 and 148.2 and 135.8 and 93.1 and 95.8 and 83.7
- cAMP response, source data of Fig. 5c (FPR1 W254A; [5]): 91.1 and 103.4 and 87.4 and 89.1 and 118.6 and 116.3
- cAMP response, source data of Fig. 5c (FPR1 W254A; [6]): 103.6 and 105.4 and 122.2 and 126.9 and 94.2 and 83.4
- cAMP response, source data of Fig. 5c (FPR1 W254A; [7]): 91.3 and 89.9 and 82.5 and 100.6 and 78.2 and 121.6
- cAMP response, source data of Fig. 5c (FPR1 WT; [1]): 20.4 and 42.5 and 37.3 and 30.7 and 33.1 and 22.2
- cAMP response, source data of Fig. 5c (FPR1 WT; [2]): 30.4 and 35.6 and 42.4 and 19.5 and 36.4 and 24.0
- cAMP response, source data of Fig. 5c (FPR1 WT; [3]): 40.4 and 50.7 and 84.2 and 40.3 and 33.6 and 25.9
- cAMP response, source data of Fig. 5c (FPR1 WT; [4]): 87.5 and 65.8 and 43.6 and 78.3 and 56.9 and 62.0
- cAMP response, source data of Fig. 5c (FPR1 WT; [5]): 77.7 and 86.3 and 96.2 and 64.2 and 98.0 and 81.7
- cAMP response, source data of Fig. 5c (FPR1 WT; [6]): 97.4 and 88.7 and 121.7 and 96.9 and 127.4 and 112.3
- cAMP response, source data of Fig. 5c (FPR1 WT; [7]): 121.5 and 92.5 and 68.2 and 113.1 and 100.9 and 59.4
- cAMP response, source data of Fig. 5c (FPR1 Y257A; [1]): 51.7 and 61.9 and 39.5 and 51.2 and 43.2 and 15.4
- cAMP response, source data of Fig. 5c (FPR1 Y257A; [2]): 60.7 and 49.4 and 56.6 and 54.8 and 51.3 and -1.5
- cAMP response, source data of Fig. 5c (FPR1 Y257A; [3]): 54.9 and 91.2 and 101.7 and 113.5 and 44.6 and 61.0
- cAMP response, source data of Fig. 5c (FPR1 Y257A; [4]): 102.6 and 110.8 and 130.2 and 115.3 and 94.4 and 80.2
- cAMP response, source data of Fig. 5c (FPR1 Y257A; [5]): 117.3 and 89.4 and 110.5 and 134.7 and 130.9 and 78.0
- cAMP response, source data of Fig. 5c (FPR1 Y257A; [6]): 114.8 and 96.3 and 109.1 and 94.8 and 116.1 and 105.1
- cAMP response, source data of Fig. 5c (FPR1 Y257A; [7]): 94.4 and 94.5 and 98.8 and 97.3 and 91.9 and 86.9
- cAMP response, source data of Fig. 5c (FPR1 R201A; [1]): 58.4 and 56.8 and 52.6 and 44.5 and 35.1 and 29.1
- cAMP response, source data of Fig. 5c (FPR1 R201A; [2]): 64.6 and 66.5 and 67.4 and 33.1 and 35.1 and 7.1
- cAMP response, source data of Fig. 5c (FPR1 R201A; [3]): 27.4 and 85.5 and 103.1 and 79.2 and 67.9 and 43.7
- cAMP response, source data of Fig. 5c (FPR1 R201A; [4]): 123.9 and 103.4 and 80.5 and 44.6 and 79.3 and 87.5
- cAMP response, source data of Fig. 5c (FPR1 R201A; [5]): 96.2 and 104.2 and 101.1 and 82.1 and 104.5 and 73.8
- cAMP response, source data of Fig. 5c (FPR1 R201A; [6]): 94.8 and 131.9 and 95.9 and 99.5 and 115.2 and 72.8
- cAMP response, source data of Fig. 5c (FPR1 R201A; [7]): 86.8 and 86.4 and 117.5 and 87.0 and 119.9 and 92.1
- cAMP response, source data of Fig. 5c (FPR1 F291A; [3]): 64.0 and 54.4
- cAMP response, source data of Fig. 5c (FPR1 F291A; [4]): 101.2 and 95.2 and 83.2 and 72.7 and 84.6 and 98.0
- cAMP response, source data of Fig. 5c (FPR1 F291A; [5]): 106.8 and 85.5 and 106.6 and 93.8 and 100.2 and 96.3
- cAMP response, source data of Fig. 5c (FPR1 F291A; [6]): 119.7 and 75.8 and 106.3 and 116.4 and 90.6 and 91.4
- cAMP response, source data of Fig. 5c (FPR1 F291A; [7]): 104.4 and 100.2 and 83.9 and 93.4 and 104.9 and 113.0
